Experimental findings from the RNAGym collection of RNA variant scans (doi:10.1093/nar/gkz1192) are described below.

First the molecules themselves.
B1: CPEB3 Ribozyme (parent)
chain: UAACAGGGGGCCACAGCAGAAGCGUUCACGUCGCAGCCCCUGUCAGAUUCUGGUGAAUCUGCGAAUUCUGCUGUAUAUCUC

The source gives no read counts; variants with many changes may rest on few reads.

The data set covers variants of B1. In words: self-cleavage, relative activity (ratio to wild type); higher = more cleavage; in vitro, sequencing. The method, boiled down: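 Barcoded CPEB3 ribozyme mutants, produced by rounds of error-prone PCR, self-cleaved while being transcribed with T7 RNA polymerase for 5 hours at 37°C and during a subsequent 15 min DNase I step before EDTA was added. Sequencing of template-switched cDNA on Illumina gave cleaved and total reads, and DNA sequencing assigned barcodes to variants. Each variant's relative activity is its cleaved/total read fraction divided by the unmutated ribozyme's fraction, averaged across three batches. A variant needed a minimum of 5 reads.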
For U54A U66C U80C, the self-cleavage stood at 0.32.

With U51A A64U U78C, the self-cleavage came out at 0.21.

As to G52U U60A U74C, the self-cleavage was found to be 0.94.

Regarding U51C U54A A64G, the self-cleavage is 0.79.

For U54A A57G A64G, the self-cleavage is 0.8.

U54A A57G A64U: the self-cleavage stood at 0.41.

As to U51C G52C U74C, the self-cleavage came out at 1.23.

With U51A G52C U69A, the self-cleavage turned out to be 1.01.

Consider U49C U60C U74A, for which the self-cleavage stood at 0.16.

With U54C A57G C68G A77G, the self-cleavage stood at 0.09.

Take G52U A65U U78C: the self-cleavage stood at 0.17.

Turning to C50U U51G U67A, the self-cleavage is 0.22.

Take U51A C62U U66C U78C: the self-cleavage was 0.17.

Consider G52A A57G A77G, for which the self-cleavage came to 1.14.

In the case of U51C U60A U66C, the self-cleavage is 0.43.

For the variant U54C A65U U66C U67C U80C, the self-cleavage was found to be 0.21.

Consider U51A U60A C71U, for which the self-cleavage was 0.19.

Take U54C A56G C68U U74A: the self-cleavage was 0.68.

In the case of U49G U51A U76A, the self-cleavage was found to be 0.33.

U54A U66C U67A: the self-cleavage was found to be 0.28.

With U54A U66C U67C, the self-cleavage was 0.55.

Regarding U51G U69A G73A, the self-cleavage amounted to 1.01.

For U51C C68A U76C, the self-cleavage was 0.56.

With U54C A57G U69C A77G, the self-cleavage was found to be 0.31.

In the case of U51C U54A U60C U67C C68G, the self-cleavage was 0.22.

On to U51A U60A C71G U80C, for which the self-cleavage was 0.55.

Consider U49C U72A U78C, for which the self-cleavage was 0.26.

For U49C U69C U72C, the self-cleavage stood at 0.25.

For the variant U54C A65G G73A, the self-cleavage came to 0.84.

As to U51G A57G U66C, the self-cleavage stood at 0.26.

Regarding U54C A56G U66G U69C, the self-cleavage is 0.16.

As to U51C A56G U58A, the self-cleavage worked out at 0.5.

Consider U49C U72A U76C, for which the self-cleavage was 0.13.

As for U51A G52U U58A U78C, the self-cleavage amounted to 0.67.

For U51A G53A G61A, the self-cleavage is 1.16.

As for U51A U74A A75U, the self-cleavage was determined as 1.26.

With U51G U74A U78A, the self-cleavage turned out to be 1.16.

For the variant U54C A56G A77G, the self-cleavage came to 0.59.

Regarding U54C A64U U67C A75U, the self-cleavage was determined as 0.45.

On to U51G U66C U78C, for which the self-cleavage was 0.27.

U51A A56G U69A: the self-cleavage was 0.15.

As to U51A U54C U69C, the self-cleavage was 0.75.

As for G52U A64G A77G, the self-cleavage came to 0.88.

For the variant U51C A57G U69C U72A U80C, the self-cleavage is 0.75.

Regarding U51A A56G G61A G70A, the self-cleavage stood at 0.5.

With U51C A77G U78C, the self-cleavage was determined as 0.75.

Turning to U51C A56G U69G C71U, the self-cleavage was 0.54.

U51G A64G U67C U69C C81U: the self-cleavage amounted to 0.19.

Regarding U51A A65G U69C U72C U78C, the self-cleavage turned out to be 0.56.

As for U51C U54C U60C U72A, the self-cleavage is 0.25.

Consider G53U U58C A75G, for which the self-cleavage was 0.86.

Take U51A A56U A77G: the self-cleavage was determined as 0.36.

Consider U49G C68U U72C, for which the self-cleavage was determined as 0.48.

For U54A A64G U76C, the self-cleavage worked out at 1.11.

Consider U51C U54C U60C U69C, for which the self-cleavage amounted to 0.4.

As to U51C U54G U67C, the self-cleavage was found to be 0.4.

C50A U51A G63A A65U U69A U72A: the self-cleavage is 0.42.

As for G52U A56G A57G U72A, the self-cleavage worked out at 0.46.

Regarding U49C U66C U74A, the self-cleavage was 0.6.

As for U51C A65G U72A, the self-cleavage came to 0.51.

In the case of U51C U54C U60A U69C C79A, the self-cleavage came to 0.46.

For the variant U54C A77G U80C, the self-cleavage was 0.88.

U51C U60C C81U: the self-cleavage came out at 0.39.

Consider U49C U69A U78C, for which the self-cleavage turned out to be 0.15.

U51C U60C A77G: the self-cleavage is 0.35.

Regarding U51C U60C A77C, the self-cleavage is 0.3.

U54A A56C U72A: the self-cleavage worked out at 0.62.

As for U49C U60C A64G, the self-cleavage is 0.33.

As to U49C U60C A64U, the self-cleavage turned out to be 0.14.

On to U51A G55U U67C U74C, for which the self-cleavage was 0.35.

Consider U51C A56G U80A, for which the self-cleavage was 1.04.

For the variant U51G A75G U80C, the self-cleavage worked out at 0.53.

For the variant U54C A56G G70A, the self-cleavage is 0.29.

G52A G55C A57U: the self-cleavage is 0.51.

With U51A U54A U80C, the self-cleavage amounted to 0.99.

For the variant U49C U60C U69A, the self-cleavage came to 0.23.

For C50U U60C U78C, the self-cleavage was 0.2.

For U51A G53U U54C A57U A65U U66C U69C, the self-cleavage worked out at 0.43.

On to U51C A56U U74C, for which the self-cleavage amounted to 1.03.

As for U51C G63A U69C U78A, the self-cleavage came to 0.66.

Take U54A C68U U76C: the self-cleavage came out at 1.14.

As to U49G A56U U74C, the self-cleavage was 0.84.

Consider U51A U58A U69C, for which the self-cleavage came to 0.36.

Take U54C A64G U76G: the self-cleavage stood at 0.85.

Take G52A U60C U80A: the self-cleavage amounted to 1.

With U49C U54C U67C, the self-cleavage is 0.25.

In the case of U51C U78C U80C, the self-cleavage worked out at 0.72.

In the case of U54C A56G A57G, the self-cleavage is 0.25.

As for U51C A65U U80A, the self-cleavage is 0.32.

With C50A C62A U69G, the self-cleavage is 0.16.

For U51C U60C U72C, the self-cleavage was 0.32.

Consider U51C A65U U67C U74C U80A, for which the self-cleavage is 0.29.

As to U49C U60C A75U, the self-cleavage was found to be 0.61.

With U51A U54C U58C A77G, the self-cleavage was found to be 0.42.

Regarding C50U U54C A64U U69A, the self-cleavage came to 0.38.

In the case of U49C U58C U60C A75U U80C, the self-cleavage was 0.1.

As to U51A A56G U60C G70C, the self-cleavage was 0.25.

As for U51C A64U U80C, the self-cleavage came to 0.53.

On to G52C U60A U69C, for which the self-cleavage came to 0.72.

In the case of U51C A57U C62G, the self-cleavage came to 0.2.

Consider G52A U58A C62A, for which the self-cleavage was determined as 0.27.

In the case of U54C A56G U78C U80A, the self-cleavage stood at 0.66.

On to G53A A57G A77G, for which the self-cleavage is 0.6.

Turning to C50A A56G A77U, the self-cleavage came out at 0.66.

Regarding U51C A57G A64G, the self-cleavage stood at 0.74.

In the case of U54A A65G U67A, the self-cleavage is 0.26.

With G53A U76A U80C, the self-cleavage is 1.12.

Turning to U54C A57U A64C U67A, the self-cleavage amounted to 0.09.

With G53U U54A U58C U60A U74G, the self-cleavage worked out at 0.34.

For U51G U72C A75U, the self-cleavage was determined as 1.27.

U51C A64G A65G G70A: the self-cleavage amounted to 0.25.

For U51C U54C A57G, the self-cleavage is 0.67.

Take G53A A65G U72A U78A: the self-cleavage amounted to 0.38.

As for U51C U60A A65G, the self-cleavage was 0.46.

In the case of U54A A56G U72G, the self-cleavage turned out to be 0.52.

As to C50A G61A U74A, the self-cleavage was 0.71.

Take C50G U54C G63U U74C: the self-cleavage was 1.01.

For U54C A56G U76C, the self-cleavage turned out to be 0.7.

In the case of U51C U69C U72A, the self-cleavage is 0.43.

In the case of U51C U58C U67A U78C, the self-cleavage was found to be 0.19.

With U51A C68A U78C, the self-cleavage worked out at 0.56.

G52A A57G U60A: the self-cleavage was determined as 0.37.

Take U51A A56U U74A U78A: the self-cleavage came out at 1.1.

As for U49C U54C A65G U80A, the self-cleavage was determined as 0.11.

Turning to G52A A56U A64U, the self-cleavage turned out to be 0.36.

In the case of U51A G55A U60C, the self-cleavage was 0.34.

For the variant C50U U60C U66C U78C, the self-cleavage stood at 0.13.

For the variant U51C U60A A65G U78C, the self-cleavage came out at 0.17.

With U54A U58C A64G U76C, the self-cleavage was determined as 0.4.

As for U51G A64U A65G, the self-cleavage turned out to be 0.25.

Take U49G A57G U69C: the self-cleavage was 0.36.

Regarding U51A A56G U58G, the self-cleavage was 0.22.

In the case of U51G C62A A65G U66C, the self-cleavage turned out to be 0.25.

Consider U51C U69C U74A, for which the self-cleavage turned out to be 0.53.

Regarding U49C U67C U74C, the self-cleavage came to 0.17.

In the case of U51G U66C U72A U80C, the self-cleavage was 0.6.

For the variant U51G A57G U66A U69C, the self-cleavage was 0.29.

In the case of U54C C62U U72C, the self-cleavage was determined as 0.17.

In the case of U54C C59U A65G, the self-cleavage was 0.49.

Take C50U U51A U54C U67C: the self-cleavage came to 0.22.

As to G52A A56G U60A U69C, the self-cleavage was 0.26.

Regarding U54C A64G U72C A75G U80A, the self-cleavage was determined as 0.52.

U54A U60C A64U: the self-cleavage stood at 0.2.

Take U51A U66A U67C U80C: the self-cleavage came out at 0.32.

Consider U51G A64G U69A A75G U80C, for which the self-cleavage was determined as 0.26.

Consider U51A U69A U72C, for which the self-cleavage is 0.48.

As for C50A A56U U66C, the self-cleavage was found to be 0.11.

Consider U51C U60A A64U, for which the self-cleavage amounted to 0.51.

Consider U51C C62A U67C, for which the self-cleavage was determined as 0.31.

As for U51C U58A U60A, the self-cleavage was 0.23.

U51C G63A U67A: the self-cleavage is 0.75.

Regarding U51G A64G U69C, the self-cleavage amounted to 0.24.

With C50A A56G A65G, the self-cleavage is 0.42.

Consider U54A U78C U80C, for which the self-cleavage was determined as 0.97.

On to U51C A56G C79U, for which the self-cleavage stood at 1.23.

As to U51A G52U U54C, the self-cleavage worked out at 0.87.

As for U54A U60C U66A G70U, the self-cleavage was 0.34.

For the variant U51G U54C A56U, the self-cleavage came out at 0.61.

Regarding G52C A57U U76C, the self-cleavage was found to be 0.54.

With U51A U58C U72C, the self-cleavage was 0.57.

As for G52A U74A U80A, the self-cleavage came to 1.26.

With G52A A64G U78C, the self-cleavage is 0.64.

Consider U51A U60C U69A, for which the self-cleavage was found to be 0.34.

As for U54C C59G A65G, the self-cleavage came to 0.15.

For the variant U51C G52C U58C U72C U74C, the self-cleavage was determined as 0.5.

As for U54C A56C U69C, the self-cleavage was 0.14.

Regarding U54C A56U U66C, the self-cleavage was found to be 0.18.
